Data published in a collection of fitness landscapes (doi:10.1016/j.celrep.2020.107928).
Over roughly 81,000 sequences, “one-hybrid fitness for binding NBS DNA” has its median near -0.1; the highest 2% begin near 0.36. Some of the results follow.

B1: Caulobacter ParB omega fusion; a variant is named by its letters at X, in order, B8GW30 (parent)
chain: MESVVVGEPGMSEGRRGLGRGLSALLGEVDAAPAQAPGEQLGGSREAPIEILQRNPDQPRRTFREEDLEDLSNSIREKGVLQPILVRPSPDTAGEYQIVAGERAWRAAQRAGLKTVPIMVRELDDLAVLEIGIIENVQRADLNVLEEALSYKVLMEKFERTQENIAQTIGKSXSHVANXMRLLXLPDEVQSYLVSGELTAXHARAIAAAADPVALAKQIIEGGLSVRETEALARKAPNLSAGKSKGGRPPRVKDTDTQALESDLSSVLGLDVSIDHRGSTGTLTITYATLEQLDDLCNRLTRGI

Variants of: B1
Assay: one-hybrid fitness for binding NBS DNA (the Noc-binding site; scaled: cognate 1, non-cognate 0); higher = stronger binding
Conditions: with NBS DNA site
In short: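 Fitness here means the log change in variant-to-wild-type read ratio between plasmids sequenced before and after selection. That scale was set so cognate equals 1 and non-cognate equals 0. The selection was a bacterial one-hybrid screen of Caulobacter ParB libraries, four specificity codons randomised, in E. coli USO carrying a HIS3 reporter with the site 19 bp from the promoter, grown 48 hours at 37°C on M9-minus-histidine with 0.1 mM IPTG and 5 mM 3-AT.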

one-hybrid fitness for binding NBS DNA, 0.554:
RINT

one-hybrid fitness for binding NBS DNA, 0.516:
QMKY

one-hybrid fitness for binding NBS DNA, 0.747:
QRRK

one-hybrid fitness for binding NBS DNA, 0.557:
QRKM

one-hybrid fitness for binding NBS DNA, 0.451:
QCAS

one-hybrid fitness for binding NBS DNA, 0.757:
RRAR

one-hybrid fitness for binding NBS DNA, 0.348:
QIMR

one-hybrid fitness for binding NBS DNA, 0.588:
QRYA

one-hybrid fitness for binding NBS DNA, 0.322:
RQLS

one-hybrid fitness for binding NBS DNA, 0.371:
RMQT

one-hybrid fitness for binding NBS DNA, 0.458:
QKQS

one-hybrid fitness for binding NBS DNA, 0.706:
RCRT

one-hybrid fitness for binding NBS DNA, 0.234:
QHRD
RTET

one-hybrid fitness for binding NBS DNA, ≤ 0.2:
SRRL
PSRC
KAAN
GGYG
TWNC
QLYE
WHGR
SSSG
QLEY
TLTS
FTNC
SSHP
SGAV
AITP
DPVA
ARHE
TTIC
PTYF
KRVA
YRIR
TTMW
HIAA
SLHE
NAYM
TRGM
AARN
LYNG
DNSG
INAI
APHF
KFYG
ETPC
LVNY
PVGF
SHSK
HKFY
IMKL
NSSS
MMLR
LLIA
PGFY
PKSF
RWGW
WNDR
PTPY
WVTV
RKKP
STDI
FFAM
TKMF
PIKT
IPSW
HFDG
LRYK
LDAG
GGWY
RALP
PTYN
RWTL
LGQC
DCHR
YHTN
TTNW
TRDV
WTCG
MRTW
RDLV
WPCP
FATL
SKNY
RHME
GPRQ
QCDF
LGAM
KRSK
CRVW
HPDS
RLAK
VYVE
QETN
MERY
SANS
KCLA
QCLV
SCIV
MHSH
RTFP
RIAE
VENP
TAAE
PRAE
EQLV
WNLG
RDYL
PYDK
SHPD
QYQF
LADM
DWWR
TLHS
QASG
QNNC
QDPG
QPQI
QNCV
SALM
CQLL
AEMR
RYCK
YETT
QRVF
RAYM
RTSF
QPHS
VGDK
HHMT
HMRV
TSTD
MWSW
CTWS
SIKS
PTGC
YIAG
VPAF
APGV
NKPV
LDRA
RSQK
TRAC
RQPK
FTLC
MTVD
SKTK
PDEW
VWNK
YHKG
KKAA
HRNI
GNHG
ADKN
IALR
GKYN
WVCS
MAHM
SIVC
SVTA
EILC
QAFV
TKNV
YPPV
RLMK
QCVN
DHKE
QQTP
SACN
RMFL
WSLK
EWMS
LNAG
RCTE
AYIK
RGMT
LTVS
KDRT
CSDF
YDHY
ACMT
RCWG
TSLF
FLPR
ACNL
QGGN
NHLM
PGNL
FKTV
CPQR
SRRC
GTMN
KKLS
KTYP
LKHS
LNPG
APNI
TCPG
PGKW
VLYE
SLYS
APPF
VKLR
NPPF
SGFR
HTVW
LCTL
TQSD
WSNM
VIWS
ANGR
SHGN
LQPD
KWRT
LMRG
VANR
ANYY
NHRR
HLNR
WLET
ASIC
AQTK
CYCC
WIGP
PNKN
TFHT
QIWC
REPL
QKQC
SPDT
QCGF
YHSL
KTMT
FCGS
VLVI
SNPS
MFSL
HLKH
SIER
QGAK
YSPW
PMPE
IWDM
DRCW
AMLA
GNLA
GILC
SRIA
DADR
KQLV
SYNL
RFMC
DVSG
VQGC
WQTR
GVCC
FWLG
CQAK
MTSC
AQSP
YMTE
RICE
LVPW
PVSC
PRSC
DSPK
ISRS
LRGF
PKGT
IYDR
AAHC
PCTI
SELT
CHSR
QSLL
IPLG
ACWG
RGES
CSRS
SDSE
SQMV
VWTG
EVES
DSAT
RGLN
FTIT
SIFS
ALHV
IYCR
MLPG
EGGS
WMYS
QHPM
WWTT
YLYC
RWKW
MMSG
RPDC
TWRW
ALQA
SQVG
HMWW
NSAS
QPIG
VRAG
PHIS
